# About 14,000 (4.5%) of roughly 310,000 compounds showed an effect of 50% or more. Effects have a minus sign here. Some of the results follow.
# Biological target: human ether-à-go-go-related gene (hERG) potassium channel (human, UniProt Q12809)
# Assay: primary screen, population patch clamp on CHO cells stably expressing hERG
# 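Further: peak tail current of the secondary pulse compared with the same well before compound.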
# Sequence of human ether-à-go-go-related gene (hERG) potassium channel (Q12809 whole entry, looked up): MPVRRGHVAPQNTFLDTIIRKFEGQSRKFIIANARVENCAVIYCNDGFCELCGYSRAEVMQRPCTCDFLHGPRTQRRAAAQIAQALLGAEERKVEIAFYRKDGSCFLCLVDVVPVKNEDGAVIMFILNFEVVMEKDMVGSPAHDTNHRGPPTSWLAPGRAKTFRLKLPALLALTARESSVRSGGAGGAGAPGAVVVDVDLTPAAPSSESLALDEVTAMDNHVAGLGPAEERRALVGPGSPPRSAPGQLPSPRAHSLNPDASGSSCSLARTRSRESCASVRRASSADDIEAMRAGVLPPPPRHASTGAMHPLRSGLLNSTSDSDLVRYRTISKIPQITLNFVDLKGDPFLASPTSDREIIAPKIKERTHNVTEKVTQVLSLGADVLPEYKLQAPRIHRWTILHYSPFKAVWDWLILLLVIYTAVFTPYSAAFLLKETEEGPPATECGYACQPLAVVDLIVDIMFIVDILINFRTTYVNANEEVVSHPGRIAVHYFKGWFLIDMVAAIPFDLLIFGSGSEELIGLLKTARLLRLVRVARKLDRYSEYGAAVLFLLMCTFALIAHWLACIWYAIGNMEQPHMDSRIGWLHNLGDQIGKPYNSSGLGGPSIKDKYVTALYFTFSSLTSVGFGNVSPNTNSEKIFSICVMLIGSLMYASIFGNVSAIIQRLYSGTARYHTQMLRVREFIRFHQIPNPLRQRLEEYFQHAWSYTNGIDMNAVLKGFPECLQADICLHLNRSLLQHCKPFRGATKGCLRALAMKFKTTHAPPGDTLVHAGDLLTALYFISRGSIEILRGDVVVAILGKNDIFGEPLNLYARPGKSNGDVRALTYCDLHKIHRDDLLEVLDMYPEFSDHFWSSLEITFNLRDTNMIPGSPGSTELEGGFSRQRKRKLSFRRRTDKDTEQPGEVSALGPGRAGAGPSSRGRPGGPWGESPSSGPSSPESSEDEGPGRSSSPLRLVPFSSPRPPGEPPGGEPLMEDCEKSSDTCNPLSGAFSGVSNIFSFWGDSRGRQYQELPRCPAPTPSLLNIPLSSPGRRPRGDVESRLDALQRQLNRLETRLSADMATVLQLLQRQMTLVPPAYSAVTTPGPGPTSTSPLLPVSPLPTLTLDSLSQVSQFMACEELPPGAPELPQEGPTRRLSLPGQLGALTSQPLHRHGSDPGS
row,Compound,"hERG current change (%, negative = inhibition) at 10uM [%]"
1,O=C(O)CC(NC(=O)Cc1ccccc1)c1cc([N+](=O)[O-])ccc1Cl (centres unmarked),14.1
2,CCO[C@@H]1OC(C(=O)NC2CC2)=C[C@H](C(C)(C)C)[C@H]1CCCO,9.54
3,CCCCNC(NCCCC)=C(S(=O)(=O)CC)S(=O)(=O)CC,1.19
4,O=C(CN(C(=O)CCC(=O)Nc1nccs1)c1ccc2c(c1)OCO2)NCc1ccc(F)cc1,6.42
5,O=C(Nc1ccnn1C1CCN(C2CCC2)CC1)c1ccccc1,-0.539
6,NC(N)=NN=C1c2ccccc2-c2ccccc21,11.4
7,CCCCNC(=O)CSc1nc2ccccc2n1S(=O)(=O)c1ccc(Cl)cc1,11
8,O=C(CCNC(=O)c1ccc(Br)cc1)NCC1CCCO1 (centres unmarked),3.3
9,O=C(Nc1ccccc1F)c1ccco1,11.8
10,COc1ccc(-c2nc(CS(=O)CC(=O)NCc3ccccc3)c(C)o2)cc1OC (centres unmarked),-7.51
11,CC(C)(C)NC(=O)COC(=O)CCC(=O)c1ccc(Cl)cc1,4.85
12,O=C(NC1CC1)C1CC(=O)N(c2cccc(Cl)c2)C1 (centres unmarked),9.4
13,CCOC(=O)c1nc(S(C)(=O)=O)ncc1N1CCOCC1,14.8
14,Cc1ccc(C)c(SCC(=O)c2ccc[nH]2)c1,-14.8
15,Cc1nc2ccc([N+](=O)[O-])cc2nc1C,3.55
16,CCOC(=O)c1ccc(NC(=O)C2CCCN(S(=O)(=O)c3cnc[nH]3)C2)cc1 (centres unmarked),6.66
17,Cc1ccc(-c2ccc(=O)n(CC(=O)NCCN(CC(C)C)CC(C)C)n2)cc1,-16.3
18,Cc1cccc(OCCNC(=O)c2cncc(Br)c2)c1,-16.2
19,O=C(ONc1ccc(N=NC(=O)c2ccccc2O)cc1)c1ccccc1,-0.285
20,NNC(=O)c1[nH]c2ccc([N+](=O)[O-])cc2c1-c1ccccc1,14.4

row,Compound,"hERG current change (%, negative = inhibition) at 10uM [%]"
1,CCOc1cc(NS(C)(=O)=O)c(OCC)cc1NC(=O)c1cccs1,-15.8
2,COC(=O)c1ccc(/C=N\NC(=O)CC(=O)NCCc2ccccc2)cc1,19.8
3,COc1ccc(Cl)cc1C(=O)OCC(=O)NC(=O)c1cccn1C,-9.51
4,CC(=O)C1C(c2ccc(Cl)cc2)c2c(noc2C)CC1(C)O (centres unmarked),12.2
5,COc1cc(C=O)ccc1OCc1ccccc1Br,-2.64
6,NS(=O)(=O)c1ccc(NC(=O)COC(=O)C2(c3ccc(F)cc3)CCCC2)cc1,9.44
7,COc1ccc(Nc2nnc(SCC(=O)NC3CC3)s2)cc1,-7.7
8,Cc1c2cnn(CC(=O)N3CCOCC3)c(=O)c2c(C)n1Cc1ccccc1F,7.04
9,CCN1CCN(C(=O)c2nn(-c3ccccc3)c(=O)c3ccccc23)CC1,-2.92
10,O=C(c1ccco1)N1CCN(C(c2cccs2)c2nnnn2C2CCCCC2)CC1 (centres unmarked),-42.9
11,CC(NC(=O)CCC(=O)N1CCCCCC1)c1ccccc1 (centres unmarked),19.4
12,Cc1ccc(-c2nn(-c3ccccc3)cc2C2SCC(=O)N2Cc2ccccc2)o1 (centres unmarked),28.9
13,NC(=O)c1ccsc1NC(=O)c1ccco1,-0.908
14,Cc1cc(Cl)ccc1OCC(=O)Nc1cccc(S(=O)(=O)N2CCCC2)c1,-1.87
15,CC(=O)Nc1ccc(NC(=O)COC(=O)c2n[nH]c3ccccc23)cc1,4.1
16,O=C(O)CCNS(=O)(=O)c1ccc2c(c1)CCCC2,24.4
17,O=C(O)c1cc(Cl)ccc1-c1ccc(/C=C/c2cc(C(F)(F)F)[nH]c(=O)n2)o1,11.2
18,COC(=O)c1ccc2ccn(CC(=O)NC3CCCCC3)c2c1,1.81
19,Cc1nc2ccc(NC(=O)N3CCN(c4ccccn4)CC3)cc2s1,-7.27
20,COc1ccc(/C=C(/NC(=O)c2ccccc2Cl)C(=O)O)cc1,11.2

row,Compound,"hERG current change (%, negative = inhibition) at 10uM [%]"
1,O=C(CCNS(=O)(=O)c1ccc(Cl)cc1)OCC(=O)c1ccc[nH]1,-22.9
2,CCOC(=O)c1c(O)c2c(n(Cc3ccco3)c1=O)CCCC2,14
3,CSc1ccc(CN(C)Cc2cc(=O)oc3c(C)c(C)ccc23)cc1,2.99
4,O=C(NC1CCC(C(=O)O)CC1)OCc1ccccc1 (centres unmarked),21.9
5,CCC(=O)N(Cc1cc(=O)[nH]c2ccccc12)c1ccccc1OC,3.26
6,CCN1CCN(c2nc(-c3ccccc3Cl)nc3ccccc23)CC1.Cl,-69.9
7,COCCNc1nnc(SCC(=O)Nc2cc(C)on2)s1,4.13
8,Oc1ccc(C[C@@H]2CNCCN2CCc2cccc(F)c2)cc1,-35.7
9,Cc1cc2c([nH]c3ccccc32)c(C)[nH+]1.[Cl-],-22.7
10,CC1=C(C(=O)Nc2ccccc2C(=O)N2CCC(C)CC2)SCCO1,12
11,CCOC(=O)CNC(=O)CSc1nc(-c2ccc(OC)cc2)ns1,-6.8
12,Cl.NC1CCN(c2cccc(Cl)n2)CC1,-1.4
13,CCN(Cc1ccncc1)C(=S)NCc1ccccc1,-3.62
14,O=C(CSC1=NCCS1)c1ccc(Cl)cc1,16.3
15,CSc1ccc(Cl)c(C(=O)OCC(=O)N2CCN(C(=O)c3ccco3)CC2)c1,-30.5
16,Cc1cc(Oc2ncccc2[N+](=O)[O-])c2cc(Cl)ccc2n1,3.03
17,Cc1ccc(CN2C(=O)C(=O)N(CC(N)=O)C2=O)cc1,13.7
18,O=C(Nc1ccc2c(c1)OCO2)C1CC(=O)N(c2ccc3c(c2)OCCO3)C1 (centres unmarked),24.9
19,CC1=C2C(=O)C3C(CC=C4CC(OC5OC(O)C(O)C(O)C5CO)CCC43C)C2CCC12OC1CC(C)CNC1C2C (centres unmarked),-22.6
